The list shows a part of the results.
Legend:
Experiment in all cases: glycan array binding signal (z-score within array); higher = stronger binding
Settings in all cases: glycan notation: IUPAC condensed, linker removed
[1] = target: Neu5Ac(a2-6)Gal
Outline: (§1)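 Arrays were curated from the Consortium for Functional Glycomics database, 3228 in total, and kept only where the protein sequence was available. Binding is expressed as a within-array Z-score. This score was averaged across arrays of the same protein sequence at different concentrations or buffers and across linkers, and negative values can be read as non-binding.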

[2] = target: Neu5Ac(a2-6)Gal(b1-3)GlcNAc(b1-3)[Gal(b1-4)GlcNAc(b1-6)]Gal(b1-4)Glc
Outline: as §1

[3] = target: Neu5Ac(a2-6)Gal(b1-4)Glc
Outline: as §1

[4] = target: Neu5Ac(a2-6)Gal(b1-4)GlcNAc
Outline: as §1

[5] = target: Neu5Ac(a2-6)Gal(b1-4)GlcNAc(b1-2)Man
Outline: as §1

[6] = target: Neu5Ac(a2-6)Gal(b1-4)GlcNAc(b1-2)Man(a1-3)Man(b1-4)GlcNAc(b1-4)GlcNAc
Outline: as §1

[7] = target: Neu5Ac(a2-6)Gal(b1-4)GlcNAc(b1-2)Man(a1-3)[Gal(b1-4)GlcNAc(b1-2)Man(a1-6)]Man(b1-4)GlcNAc(b1-4)GlcNAc
Outline: as §1

[8] = target: Neu5Ac(a2-6)Gal(b1-4)GlcNAc(b1-2)Man(a1-3)[GlcNAc(b1-2)Man(a1-6)]Man(b1-4)GlcNAc(b1-4)GlcNAc
Outline: as §1

[9] = target: Neu5Ac(a2-6)Gal(b1-4)GlcNAc(b1-2)Man(a1-3)[GlcNAc(b1-4)][Neu5Ac(a2-6)Gal(b1-4)GlcNAc(b1-2)Man(a1-6)]Man(b1-4)GlcNAc(b1-4)GlcNAc
Outline: as §1

[10] = target: Neu5Ac(a2-6)Gal(b1-4)GlcNAc(b1-2)Man(a1-3)[Man(a1-6)]Man(b1-4)GlcNAc(b1-4)GlcNAc
Outline: as §1

[11] = target: Neu5Ac(a2-6)Gal(b1-4)GlcNAc(b1-2)Man(a1-3)[Neu5Ac(a2-3)Gal(b1-4)GlcNAc(b1-2)Man(a1-6)]Man(b1-4)GlcNAc(b1-4)GlcNAc
Outline: as §1

[12] = target: Neu5Ac(a2-6)Gal(b1-4)GlcNAc(b1-2)Man(a1-3)[Neu5Ac(a2-6)Gal(b1-4)GlcNAc(b1-2)Man(a1-6)]Man(b1-4)GlcNAc(b1-4)GlcNAc
Outline: as §1

[13] = target: Neu5Ac(a2-6)Gal(b1-4)GlcNAc(b1-2)Man(a1-3)[Neu5Ac(a2-6)Gal(b1-4)GlcNAc(b1-2)Man(a1-6)]Man(b1-4)GlcNAc(b1-4)[Fuc(a1-6)]GlcNAc
Outline: as §1

[14] = target: Neu5Ac(a2-6)Gal(b1-4)GlcNAc(b1-2)Man(a1-6)Man(b1-4)GlcNAc(b1-4)GlcNAc
Outline: as §1

[15] = target: Neu5Ac(a2-6)Gal(b1-4)GlcNAc(b1-2)Man(a1-6)[Gal(b1-4)GlcNAc(b1-2)Man(a1-3)]Man(b1-4)GlcNAc(b1-4)GlcNAc
Outline: as §1

[16] = target: Neu5Ac(a2-6)Gal(b1-4)GlcNAc(b1-2)Man(a1-6)[GlcNAc(b1-2)Man(a1-3)]Man(b1-4)GlcNAc(b1-4)GlcNAc
Outline: as §1

[17] = target: Neu5Ac(a2-6)Gal(b1-4)GlcNAc(b1-2)Man(a1-6)[Man(a1-3)]Man(b1-4)GlcNAc(b1-4)GlcNAc
Outline: as §1

[18] = target: Neu5Ac(a2-6)Gal(b1-4)GlcNAc(b1-2)[Neu5Ac(a2-6)Gal(b1-4)GlcNAc(b1-4)]Man(a1-3)[GlcNAc(b1-4)][Neu5Ac(a2-6)Gal(b1-4)GlcNAc(b1-2)[Neu5Ac(a2-6)Gal(b1-4)GlcNAc(b1-6)]Man(a1-6)]Man(b1-4)GlcNAc(b1-4)GlcNAc
Outline: as §1

[19] = target: Neu5Ac(a2-6)Gal(b1-4)GlcNAc(b1-2)[Neu5Ac(a2-6)Gal(b1-4)GlcNAc(b1-4)]Man(a1-3)[GlcNAc(b1-4)][Neu5Ac(a2-6)Gal(b1-4)GlcNAc(b1-4)Man(a1-6)]Man(b1-4)GlcNAc(b1-4)GlcNAc
Outline: as §1

[20] = target: Neu5Ac(a2-6)Gal(b1-4)GlcNAc(b1-2)[Neu5Ac(a2-6)Gal(b1-4)GlcNAc(b1-6)]Man(a1-6)[Neu5Ac(a2-6)Gal(b1-4)GlcNAc(b1-2)Man(a1-3)][GlcNAc(b1-4)]Man(b1-4)GlcNAc(b1-4)GlcNAc
Outline: as §1

[21] = target: Neu5Ac(a2-6)Gal(b1-4)GlcNAc(b1-3)Gal(b1-3)GlcNAc
Outline: as §1

[22] = target: Neu5Ac(a2-6)Gal(b1-4)GlcNAc(b1-3)Gal(b1-4)GlcNAc
Outline: as §1

[23] = target: Neu5Ac(a2-6)Gal(b1-4)GlcNAc(b1-3)Gal(b1-4)GlcNAc(b1-2)Man(a1-3)[Neu5Ac(a2-6)Gal(b1-4)GlcNAc(b1-3)Gal(b1-4)GlcNAc(b1-2)Man(a1-6)]GalNAc
Outline: as §1

[24] = target: Neu5Ac(a2-6)Gal(b1-4)GlcNAc(b1-3)Gal(b1-4)GlcNAc(b1-3)Gal(b1-4)GlcNAc
Outline: as §1

[25] = target: Neu5Ac(a2-6)Gal(b1-4)GlcNAc(b1-3)Gal(b1-4)GlcNAc(b1-3)Gal(b1-4)GlcNAc(b1-2)Man(a1-3)[Neu5Ac(a2-6)Gal(b1-4)GlcNAc(b1-3)Gal(b1-4)GlcNAc(b1-3)Gal(b1-4)GlcNAc(b1-2)Man(a1-6)]GalNAc
Outline: as §1

[26] = target: Neu5Ac(a2-6)Gal(b1-4)GlcNAc(b1-3)Gal(b1-4)GlcNAc(b1-3)GalNAc
Outline: as §1

[27] = target: Neu5Ac(a2-6)Gal(b1-4)GlcNAc(b1-3)Gal(b1-4)GlcNAc(b1-3)[Neu5Ac(a2-6)Gal(b1-4)GlcNAc(b1-3)Gal(b1-4)GlcNAc(b1-6)]GalNAc
Outline: as §1

[28] = target: Neu5Ac(a2-6)Gal(b1-4)GlcNAc(b1-3)Gal(b1-4)GlcNAc(b1-6)[Gal(b1-3)]GalNAc
Outline: as §1

[29] = target: Neu5Ac(a2-6)Gal(b1-4)GlcNAc(b1-3)Gal(b1-4)[Fuc(a1-3)]GlcNAc(b1-3)Gal(b1-4)[Fuc(a1-3)]GlcNAc
Outline: as §1

[30] = target: Neu5Ac(a2-6)Gal(b1-4)GlcNAc(b1-3)GalNAc
Outline: as §1

[31] = target: Neu5Ac(a2-6)Gal(b1-4)GlcNAc(b1-3)[Neu5Ac(a2-6)Gal(b1-4)GlcNAc(b1-6)]GalNAc
Outline: as §1

[32] = target: Neu5Ac(a2-6)Gal(b1-4)GlcNAc(b1-6)GalNAc
Outline: as §1

[33] = target: Neu5Ac(a2-6)Gal(b1-4)GlcNAc(b1-6)[Gal(b1-3)GlcNAc(b1-3)]Gal(b1-4)Glc
Outline: as §1

[34] = target: Neu5Ac(a2-6)Gal(b1-4)GlcNAc(b1-6)[Gal(b1-3)]GalNAc
Outline: as §1

[35] = target: Neu5Ac(a2-6)Gal(b1-4)GlcNAc6S
Outline: as §1

[36] = target: Neu5Ac(a2-6)GalNAc
Outline: as §1

[37] = target: Neu5Ac(a2-6)GalNAc(b1-4)GlcNAc
Outline: as §1

[38] = target: Neu5Ac(a2-6)GalNAc(b1-4)GlcNAc6S
Outline: as §1

B1: DC-Sign (Homo sapiens), Q9NNX6 (protein)
chain: MSDSKEPRLQQLGLLEEEQLRGLGFRQTRGYKSLAGCLGHGPLVLQLLSFTLLAGLLVQVSKVPSSISQEQSRQDAIYQNLTQLKAAVGELSEKSKLQEIYQELTQLKAAVGELPEKSKLQEIYQELTRLKAAVGELPEKSKLQEIYQELTWLKAAVGELPEKSKMQEIYQELTRLKAAVGELPEKSKQQEIYQELTRLKAAVGELPEKSKQQEIYQELTRLKAAVGELPEKSKQQEIYQELTQLKAAVERLCHPCPWEWTFFQGNCYFMSNSQRNWHDSITACKEVGAQLVVIKSAEEQNFLQLQSSRSNRFTWMGLSDLNQEGTWQWVDGSPLLPSFKQYWNRGEPNNVGEEDCAEFSGNGWNDDKCNLAKFWICKKSAASCSRDEEQFLSPAPATPNPPPA
Q: B1 was tested. Which “glycan array binding signal (z-score)” value [1] did it give?
A: Its value is -0.152.

Q: What about the “glycan array binding signal (z-score)” value [2] of the same binder?
A: The value was -0.195.

Q: What about the “glycan array binding signal (z-score)” value [3] of the same binder?
A: Its value is -0.184.

Q: What about the “glycan array binding signal (z-score)” value [4] of the same binder?
A: Its value is -0.174.

Q: And the “glycan array binding signal (z-score)” value [5]?
A: Its value is -0.156.

Q: What about the “glycan array binding signal (z-score)” value [6] of the same binder?
A: Its value is -0.161.

Q: What about the “glycan array binding signal (z-score)” value [7] of the same binder?
A: The value was -0.165.

Q: What about the “glycan array binding signal (z-score)” value [8] of the same binder?
A: The value was -0.199.

Q: What about the “glycan array binding signal (z-score)” value [9] of the same binder?
A: The value was -0.127.

Q: And the “glycan array binding signal (z-score)” value [10]?
A: Its value is -0.184.

Q: And the “glycan array binding signal (z-score)” value [11]?
A: The value was -0.097.

Q: And the “glycan array binding signal (z-score)” value [12]?
A: Its value is -0.146.

Q: And the “glycan array binding signal (z-score)” value [13]?
A: The value was -0.121.

Q: What about the “glycan array binding signal (z-score)” value [14] of the same binder?
A: Its value is -0.195.

Q: And the “glycan array binding signal (z-score)” value [15]?
A: Its value is -0.176.

Q: What about the “glycan array binding signal (z-score)” value [16] of the same binder?
A: The value was -0.106.

Q: What about the “glycan array binding signal (z-score)” value [17] of the same binder?
A: The value was -0.192.

Q: And the “glycan array binding signal (z-score)” value [18]?
A: Its value is -0.156.

Q: And the “glycan array binding signal (z-score)” value [19]?
A: Its value is -0.183.

Q: And the “glycan array binding signal (z-score)” value [20]?
A: The value was -0.167.

Q: What about the “glycan array binding signal (z-score)” value [21] of the same binder?
A: The value was -0.161.

Q: What about the “glycan array binding signal (z-score)” value [22] of the same binder?
A: Its value is -0.172.

Q: And the “glycan array binding signal (z-score)” value [23]?
A: Its value is 0.12.

Q: What about the “glycan array binding signal (z-score)” value [24] of the same binder?
A: The value was -0.183.

Q: And the “glycan array binding signal (z-score)” value [25]?
A: Its value is -0.056.

Q: And the “glycan array binding signal (z-score)” value [26]?
A: The value was -0.178.

Q: What about the “glycan array binding signal (z-score)” value [27] of the same binder?
A: The value was -0.162.

Q: And the “glycan array binding signal (z-score)” value [28]?
A: Its value is -0.112.

Q: And the “glycan array binding signal (z-score)” value [29]?
A: Its value is -0.111.

Q: And the “glycan array binding signal (z-score)” value [30]?
A: Its value is -0.123.

Q: What about the “glycan array binding signal (z-score)” value [31] of the same binder?
A: The value was -0.123.

Q: And the “glycan array binding signal (z-score)” value [32]?
A: The value was -0.006.

Q: What about the “glycan array binding signal (z-score)” value [33] of the same binder?
A: The value was -0.16.

Q: And the “glycan array binding signal (z-score)” value [34]?
A: Its value is -0.146.

Q: And the “glycan array binding signal (z-score)” value [35]?
A: Its value is -0.137.

Q: And the “glycan array binding signal (z-score)” value [36]?
A: Its value is -0.151.

Q: What about the “glycan array binding signal (z-score)” value [37] of the same binder?
A: Its value is -0.189.

Q: And the “glycan array binding signal (z-score)” value [38]?
A: The value was -0.154.

— the supplement of paper PMC8728848
